Measured values reported in PubChem BioAssay AID434955 (Southern Research Specialized Biocontainment Screening …, 2010).
The other results are listed elsewhere or left out. The main result of the screen is listed elsewhere. These columns were measured beside it and carry no call. The list favours compounds with an active or inconclusive main result.

Experiment: beta-lactam sensitization of Mtb H37Rv, H37Rv (AID 434955);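 further: growth measured after seven days incubation then overnight dye step; 0% = bacteria only wells and 100% = bacteria with antibiotic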
Conditions: M. tuberculosis H37Rv growth with meropenem, percent inhibition; measured here: primary screen without meropenem; at 25 µM

| SMILES | inhibition [%] |
| --- | --- |
| COc1ccc(C(=O)C[n+]2cccc3cc(OC)ccc32)cc1 | 10.7 |
| Cc1cc2oc(C(=O)N3CCN(CCc4ccccn4)CC3)c(C)c2cc1C | -2.25 |
| Cc1nn(CC(=O)NNC(=O)c2cccc(Br)c2)c(C)c1[N+](=O)[O-] | 3.27 |
| COc1ccc2c(c1)C(=O)Cc1ccccc1O2 | 12.7 |
| C[N+]1(CC2COC3(CCCCC3)O2)CCCC1 (configuration not stated) | -2.84 |
| Cc1nn(CC(=O)NCCCN2CCC(Cc3ccccc3)CC2)c(=O)c2cc(-c3ccccc3)nn12 | 98.1 |
| CCc1ccccc1NC(=S)N(CCCN1CCOCC1)Cc1ccccn1 | -0.63 |
| COc1ccc(C(=O)CCC(=O)N2CCN(c3cccc(Cl)c3)CC2)cc1 | 35.3 |
| CC(C)c1ccc(C2NC(=S)NC3=C2C(=O)CCC3)cc1 (configuration not stated) | -2.31 |
| Cc1ccc(Cn2c(NC(=O)c3ccco3)nc3ccccc32)cc1 | 39.9 |
| O=C(O)CCCCCNC(=O)CCn1cnc2ccccc2c1=O | -0.25 |
| CSc1ccccc1OCc1cc(C(=O)N2CCC(c3ccncc3)CC2)no1 | 87.7 |
| COc1ccccc1CNC(=O)CN1C(=O)C(C)N(c2ccc(C)cc2)C1=O (configuration not stated) | 5.24 |
| CCOc1ccccc1NC(=O)CCc1nnc2ccc(N3CCC4(CC3)OCCO4)nn12 | -11.1 |
| Cc1sc2c(c1C)c(=O)n(-c1cccc(C(F)(F)F)c1)c(=O)n2CC(=O)NCc1ccco1 | 6.78 |
| COC(=O)COc1cc(=O)oc2ccc(NS(=O)(=O)c3ccccc3)cc12 | 11.6 |
| Oc1ccc(C2C[C@H]3CC[C@@H]2C3)cc1O (some centres not stated) | -0.45 |
| CCSc1nnc(NC(=O)C2Cc3ccccc3CN2C(=O)c2ccco2)s1 (configuration not stated) | 29.6 |
| COc1cc(C(=O)N/N=C/c2ccc(OC(=O)c3cccc(C)c3)cc2)ccc1O | 33.3 |
| COc1cccc(C2CC(c3ccc(C)cc3)Nc3nc(N)nn32)c1 (configuration not stated) | -6.59 |
| O=C(NN1C(=O)C2C(C1=O)C1C=CC2C12CC2)c1ccncc1 (configuration not stated) | 37.1 |
| O=C(CCCn1c(SCC(=O)c2ccccc2)nc2ccccc2c1=O)NCC1CCCO1 (configuration not stated) | -6.62 |

| SMILES | inhibition [%] |
| --- | --- |
| CCOC(=O)N1CCN(C(=O)CNC(=O)c2nn(-c3ccc(OC)cc3)c(=O)c3ccccc23)CC1 | 4.49 |
| CC1(C)Cc2c(cnn2-c2ccc(F)cc2)C(NC(=O)Cn2cncn2)C1 (configuration not stated) | -12 |
| Cn1nc(C(=O)N2CCOCC2)c2ccccc2c1=O | 4.19 |
| COC(=O)C1=C(C)Nc2ncnn2C1c1ccc(C)o1 (configuration not stated) | -6.76 |
| Nc1n[nH]c(N)c1N=Nc1cccc(F)c1 | -6.18 |
| COc1cc(NC(=S)NC(=O)c2ccco2)ccc1NC(=O)C(C)C | -13.6 |
| O=[N+]([O-])c1cc(C(F)(F)F)ccc1NCCc1c[nH]c2ccc(O)cc12 | -1.15 |
| CC(C)(C)c1ccc(C(=O)N/C(=C\c2cccs2)C(=O)NCc2ccco2)cc1 | 14.7 |
| CCOC(=O)c1csc(NC(=O)c2ccc3c(c2)OCCO3)n1 | 3.79 |
| CCOC(=O)C1CCN(C(=O)CN2C(=O)c3cccnc3Oc3ccccc32)CC1 | -0.87 |
| O=C(O)c1cnc(-c2ccccc2)nc1Sc1ccccc1Cl | -1.72 |
| CCc1ccc(NC(=O)C2CCCN2S(=O)(=O)c2ccc3c(c2)C(C)(C)C(=O)N3C)cc1 (configuration not stated) | -13.2 |
| COC(=O)N1C(=O)[C@](Cc2ccccc2)(c2ccccc2)N1C(=O)OC | -5.04 |
| CSc1ccc(C(=O)C2CCCN(C(=O)CCn3cncn3)C2)cc1 (configuration not stated) | -2.63 |
| O=C1CCC(C(=O)Nc2cc(C(F)(F)F)ccc2-n2cncn2)=NN1 | 2.39 |
| CCCCn1c(N)c(Sc2ccc(Cl)cc2)c(=O)[nH]c1=O | 1.42 |
| CCN1CCN(C(=O)c2ccc3c(c2)N(Cc2ccc(F)cc2)C(=O)c2ccccc2S3=O)CC1 (configuration not stated) | -8.96 |
| S=c1sc2c(N3CCOCC3)ncnc2n1-c1ccccc1 | -0.39 |
| CCOC(=O)C1CSC(CC(=O)Nc2ccc(Cl)c(Cl)c2)C(=O)N1 (configuration not stated) | 8.78 |
| Cc1nn(CC(=O)Nc2ccc(C(=O)N3CCCCC3)cc2)c(=O)c2ccccc12 | 0.06 |
| CC(C)Oc1ccc(/C=N/NC(=O)C(CSCc2ccccc2)NC(=O)c2ccc([N+](=O)[O-])cc2)cc1 (configuration not stated) | -7.35 |
| CC(=O)N1CCN(S(=O)(=O)c2cccc(C(=O)Nc3ccc(C)cn3)c2)CC1 | 0.97 |

| SMILES | inhibition [%] |
| --- | --- |
| CCn1nc(C)cc1C(=O)NC1CC(C)(C)Cc2c1cnn2-c1cccc(F)c1 (configuration not stated) | 9.81 |
| COc1cccc(C(=O)C2CCCN(Cc3ccccn3)C2)c1 (configuration not stated) | 33.9 |
| O=C(NNC(=S)NC(=O)c1sc2ccccc2c1Cl)c1ccc(Cl)cc1 | 97.3 |
| CCC1CCCCN1CCCNS(=O)(=O)c1ccc2c(c1)oc(=O)n2C (configuration not stated) | 1.26 |
| Cc1cccc(N2CC(=O)N(c3cccc(C)c3)CC2=O)c1 | -1.24 |
| Cc1ccc(OCCN(C)C(=O)C2CCC(=O)N(Cc3ccccc3F)C2)cc1 (configuration not stated) | 2.34 |
| CCc1nnc(NS(=O)(=O)c2ccc(NC(=O)c3ccc(S(=O)(=O)N(CC)CC)cc3)cc2)s1 | 2.64 |
| CSc1ccccc1OCc1cc(C(=O)N(Cc2nccn2C)C(C)C)no1 | -0.92 |
| COC(=O)c1ccc(N2CCN(C)CC2)c(NC(=O)c2ccc(-c3ccc(Cl)cc3)o2)c1 | -5.23 |
| CC12CCC(C/C1=N/NC(=O)Nc1ccccc1)C2(C)C (configuration not stated) | 1.52 |
| Cn1c(-c2ccc(F)cc2)cnc1NCc1ccc(F)cc1 | -2.93 |
| CC(C)C(NC(=O)c1cccs1)C(=O)NC1CCCCC1 (configuration not stated) | -7.91 |
| CC(=O)c1c(O)c2ccccc2n(Cc2ccccc2)c1=O | 7.99 |
| COC(=O)c1cc2sc(Cl)cc2n1CC(=O)NCCC(C)C | -2.53 |
| CCOC(=O)c1cnn(-c2ccccc2)c1NC(=O)c1ccc(C)cc1 | -4.08 |
| CCn1cc(CN2CCC(n3nccc3NC(=O)c3ccc4c(c3)OCO4)CC2)c(C)n1 | -0.58 |
| O=C(CN1C(=O)CSC1=O)N1CCCC(Nc2ccc(F)cc2)C1 (configuration not stated) | -0.68 |
| CSc1ccccc1OCc1cc(C(=O)NCCCc2ccccc2)no1 | -9.32 |
| CCC(C)N(CCNC(=O)CC1Oc2ccc(C)cc2NC1=O)C1CCCCC1 (configuration not stated) | -8.87 |
| COc1ccccc1CCNS(=O)(=O)c1cn(C)nc1C | 3.03 |
| N#Cc1nc(COc2ccc(Br)cc2)oc1NCCN1CCOCC1 | 4.53 |
| COc1ccccc1Nc1ncnc2c1c(C)c(C)n2CCCN(C)C | -2.13 |

| SMILES | inhibition [%] |
| --- | --- |
| COc1ccc(C(CNC(=O)Cc2ccc(Cl)c(Cl)c2)N2CCCCC2)cc1 (configuration not stated) | -2.34 |
| CCCN1C(=O)S/C(=C/c2ccc(N3CCOCC3)o2)C1=O | 37.3 |
| COCC1CCN(C(=O)CCc2nnc(C3(c4ccc(Cl)cc4)CCC3)o2)CC1 | 0.63 |
| CN(Cc1ccco1)c1ncnc2ccc(-c3ccc4c(c3)OCO4)cc12 | 97 |
| CCCc1cc(Nc2cccc(OCC)c2)n2ncnc2n1 | -4.24 |
| O=c1c2c3c(sc2n2cnnc2n1CCc1ccccc1)CCCC3 | -1.2 |
| CCCCC12CN3CC(C)(CN(C1)C3c1ccc([N+](=O)[O-])o1)C2=O (configuration not stated) | 41.2 |
| CC1(c2ccccc2)CC(C)(C)N2C(=O)C3(C(C#N)=C(N)Oc4cc(O)ccc43)c3cccc1c32 (configuration not stated) | 68.5 |
| C=CCNc1nnc(Cc2ccc(C(C)C)cc2)c(=O)[nH]1 | 1.48 |
| O=C(/C=C/c1cc(Br)ccc1F)OCC(=O)N1CCCC1 | 29.3 |
| COc1ccc(C(=O)Nc2nncs2)c(OC)c1 | -9.58 |
| S=c1[nH]nc(C2CCCCC2)n1/N=C/c1ccccc1 | 9.46 |
| CN(C)S(=O)(=O)c1cccc(NC(=O)c2cc(-c3cccs3)nc3ccccc23)c1 | -0.92 |
| COc1cccc(/C=N/NC(=O)CSCC(=O)Nc2ccccc2)c1O | 6.16 |
| CCC(C)[C@H](NC(=O)NC1CC1)C(=O)O (some centres not stated) | 0.01 |
| CCCc1cc(C(=O)N/N=C/c2cccn2C)cs1 | 45.7 |
| CCc1noc(C)c1C(=O)N1CCN(S(=O)(=O)c2cc(C)ccc2C)CC1 | 0.05 |
| O=C(c1ccccc1NS(=O)(=O)c1cccc([N+](=O)[O-])c1)N1CCCC1 | -3.31 |
| CCn1nc(C)c(CN2CCCCC2C(=O)Nc2ccc(Oc3cccnc3)cc2)c1C (configuration not stated) | 3.99 |
| CCCCn1cc(S(=O)(=O)c2ccccc2)c(=O)c2cc(C)ccc21 | 2.84 |
| Cc1cc(C)c2c(n1)SCC(=O)N2CC(=O)Nc1c(C)cccc1C | -5.89 |
| C=CCSc1nc(O)c(CC)c(=O)n1C(C)CC (configuration not stated) | 12 |

| SMILES | inhibition [%] |
| --- | --- |
| COC(=O)c1ccccc1NC(=S)N(Cc1ccc2c(c1)OCO2)Cc1cc2ccc(C)cc2[nH]c1=O | 3.23 |
| CCOC(=O)c1sc(NC(=O)Nc2ccc(Cl)cc2)cc1C | 27.3 |
| O=C(Nc1cccc([N+](=O)[O-])c1)C1CCN(C(=O)Cc2ccccc2)CC1 | -5.78 |
| O=C(NCc1ccc(F)cc1)c1ccc2c(=O)n3c(nc2c1)CCCCC3 | -5.67 |
| Cc1cc(Nc2nc3ccccc3nc2Cl)n(-c2ccccc2)n1 | 3.71 |
| Cc1ccc(S(=O)(=O)c2cn(C)c3cc(N4CCN(C)CC4)c(F)cc3c2=O)c(C)c1 | 5 |
| O=C(CC1Nc2ccccc2NC1=O)c1ccccc1 (configuration not stated) | 24 |
| CCOc1ccc(-c2cnc3n2CCC3)cc1 | 13.4 |
| c1ccc(Nc2ncnc3c2oc2ccccc23)cc1 | 40 |
| CS(=O)(=O)N1CCc2ccc(NC(=O)C3CCCO3)cc2C1 (configuration not stated) | 4.12 |
| CCn1c(=O)n(CC)c2cc(S(=O)(=O)Nc3ccccc3C)c(C)cc21 | 1.92 |
| Cc1ccc(C(=O)CC(=O)c2ccccc2C)c(O)c1 | 83.8 |
| COc1ccc(NS(=O)(=O)c2cc(NC(=O)c3ccccc3F)ccc2N2CCCC2)cc1 | 1 |
| CC(C)C[C@H](NC(=O)C1(c2ccccc2)CCN(C(=O)OC(C)(C)C)CC1)C(=O)N1CCC[C@H]1C(=O)O | -5.87 |
| FC(F)(F)c1cc(-c2ccco2)nc(NCc2ccccc2)n1 | 7.03 |
| CCOC(=O)C1CCCN(C(=O)Cn2nc(C)n3c(cc4c(OC)cccc43)c2=O)C1 (configuration not stated) | -3.89 |
| O=C(CCSc1nnc(-c2ccncc2)o1)Nc1ccccc1Cl | 38 |
| CCOc1ccccc1-c1nc(CN2CCC(C(=O)N3CCOCC3)CC2)c(C)o1 | 3.56 |
| O=C(C1CCCO1)N1CCN(C(=S)Nc2ccc(Br)cc2)CC1 (configuration not stated) | 1.27 |
